Results from article PMC12815461.
No constants are given. Whether binding was seen depends on the method and setting. Binding seen in cells or lysates may run through a third protein. Some entries that bind do so weakly or less than the wild type.

Amino acid sequences for entries named in this document (tags omitted).
UniProt Q12888: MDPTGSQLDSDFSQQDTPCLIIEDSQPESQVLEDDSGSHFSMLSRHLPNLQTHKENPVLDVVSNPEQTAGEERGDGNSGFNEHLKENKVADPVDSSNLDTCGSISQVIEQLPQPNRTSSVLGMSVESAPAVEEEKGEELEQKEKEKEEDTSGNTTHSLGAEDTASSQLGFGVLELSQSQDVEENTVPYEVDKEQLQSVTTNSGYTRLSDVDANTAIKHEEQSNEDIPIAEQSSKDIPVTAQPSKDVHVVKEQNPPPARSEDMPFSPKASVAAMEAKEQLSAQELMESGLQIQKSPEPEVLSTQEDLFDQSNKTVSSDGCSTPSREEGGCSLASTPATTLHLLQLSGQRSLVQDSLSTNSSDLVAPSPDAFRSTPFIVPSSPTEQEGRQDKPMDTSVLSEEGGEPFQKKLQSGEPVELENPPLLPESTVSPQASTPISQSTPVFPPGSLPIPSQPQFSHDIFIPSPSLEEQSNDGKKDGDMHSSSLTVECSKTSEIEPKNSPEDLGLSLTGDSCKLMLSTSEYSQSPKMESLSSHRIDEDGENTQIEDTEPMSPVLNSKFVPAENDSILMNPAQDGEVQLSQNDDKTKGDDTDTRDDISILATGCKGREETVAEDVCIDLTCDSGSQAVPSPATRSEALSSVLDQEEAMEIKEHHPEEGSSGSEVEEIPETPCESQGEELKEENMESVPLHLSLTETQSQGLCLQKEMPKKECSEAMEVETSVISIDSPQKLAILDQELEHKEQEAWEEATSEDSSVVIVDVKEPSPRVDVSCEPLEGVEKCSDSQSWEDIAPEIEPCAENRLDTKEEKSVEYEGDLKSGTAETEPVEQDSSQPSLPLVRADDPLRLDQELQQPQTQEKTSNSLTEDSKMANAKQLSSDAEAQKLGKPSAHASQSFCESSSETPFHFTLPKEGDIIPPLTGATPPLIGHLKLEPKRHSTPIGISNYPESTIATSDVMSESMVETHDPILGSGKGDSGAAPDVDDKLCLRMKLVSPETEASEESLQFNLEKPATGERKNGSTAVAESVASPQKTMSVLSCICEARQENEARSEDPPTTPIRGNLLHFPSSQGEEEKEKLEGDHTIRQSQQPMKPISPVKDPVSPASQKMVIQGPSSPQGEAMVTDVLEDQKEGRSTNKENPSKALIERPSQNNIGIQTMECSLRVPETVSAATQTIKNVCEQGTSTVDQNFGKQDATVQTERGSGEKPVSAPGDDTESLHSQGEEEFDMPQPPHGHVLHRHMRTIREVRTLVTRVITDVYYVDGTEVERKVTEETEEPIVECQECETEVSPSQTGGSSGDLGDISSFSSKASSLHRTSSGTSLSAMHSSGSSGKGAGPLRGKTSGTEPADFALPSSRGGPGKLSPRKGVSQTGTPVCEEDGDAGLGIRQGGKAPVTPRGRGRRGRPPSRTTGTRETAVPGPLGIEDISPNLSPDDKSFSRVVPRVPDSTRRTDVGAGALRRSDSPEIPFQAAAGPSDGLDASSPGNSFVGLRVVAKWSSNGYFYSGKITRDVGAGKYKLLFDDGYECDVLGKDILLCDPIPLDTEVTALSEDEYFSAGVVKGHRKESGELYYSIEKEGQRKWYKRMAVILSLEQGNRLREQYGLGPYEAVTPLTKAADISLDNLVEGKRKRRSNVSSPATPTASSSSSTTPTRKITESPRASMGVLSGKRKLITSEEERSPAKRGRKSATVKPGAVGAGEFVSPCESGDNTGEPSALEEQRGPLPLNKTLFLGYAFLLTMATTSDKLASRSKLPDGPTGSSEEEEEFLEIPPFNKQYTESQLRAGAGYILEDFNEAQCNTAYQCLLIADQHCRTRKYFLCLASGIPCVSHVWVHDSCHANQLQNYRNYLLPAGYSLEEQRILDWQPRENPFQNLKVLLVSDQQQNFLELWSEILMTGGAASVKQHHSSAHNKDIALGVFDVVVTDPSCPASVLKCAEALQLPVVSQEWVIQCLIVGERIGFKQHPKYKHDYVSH

Molecular target: FLAG-53BP1 WT (human) (UniProt Q12888)
Experiment: co-IP; FLAG-53BP1 WT, ΔMFF or IEDI_AAAA transfected into HEK293T, MLN4924 for 3 hr; 53BP1 immunoprecipitated (FLAG) and immunoblotted

binding: binds
B1: GMCL1, endogenous in HEK293T (as part of CRL3^GMCL1) (protein, UniProt Q96IK5 1-515)
chain: MGSLSSRVLRQPRPALAQQAQGARAGGSARRPDTGDDAAGHGFCYCAGSHKRKRSSGSFCYCHPDSETDEDEEEGDEQQRLLNTPRRKKLKSTSKYIYQTLFLNGENSDIKICALGEEWSLHKIYLCQSGYFSSMFSGSWKESSMNIIELEIPDQNIDVEALQVAFGSLYRDDVLIKPSRVVAILAAACLLQLDGLIQQCGETMKETVNVKTVCGYYTSAGTYGLDSVKKKCLEWLLNNLMTHQNVELFKELSINVMKQLIGSSNLFVMQVEMDIYTALKKWMFLQLVPSWNGSLKQLLTETDVWFSKQRKDFEGMAFLETEQGKPFVSVFRHLRLQYIISDLASARIIEQDAVVPSEWLSSVYKQQWFAMLRAEQDSEVGPQEINKEELEGNSMRCGRKLAKDGEYCWRWTGFNFGFDLLVTYTNRYIIFKRNTLNQPCSGSVSLQPRRSIAFRLRLASFDSSGKLICSRTTGYQILTLEKDQEQVVMNLDSRLLIFPLYICCNFLYISPEKKN
